Substitutions are numbered along the chain they refer to; changes in the protein carry UniProt numbers. The list shows a part of the results.
T1: RBFOX1 RRM (Homo sapiens, UniProt Q9NWB1 109-208)
T1 sequence: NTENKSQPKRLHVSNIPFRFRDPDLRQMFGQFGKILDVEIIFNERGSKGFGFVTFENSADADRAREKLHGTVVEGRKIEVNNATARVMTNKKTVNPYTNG

B1: AACACGU (DNA:RNA)
RNA: GGGAGACCGGAAUUCAGAUUGUCCAACACGUUUAAAUCCCGUCGUAGCCACCA
DNA 1: CAATCTGAATTCCGGTCTCCC
DNA 2: TGGTGGCTACGACGGGATT
B2: GGUGUUC (DNA:RNA)
RNA: GGGAGACCGGAAUUCAGAUUGUCCGGUGUUCUUAAAUCCCGUCGUAGCCACCA
DNA 1: CAATCTGAATTCCGGTCTCCC
DNA 2: TGGTGGCTACGACGGGATT
B3: AUAGCCG (DNA:RNA)
RNA: B1 RNA with A26U, C27A, A28G, G30C, U31G
DNA 1: CAATCTGAATTCCGGTCTCCC
DNA 2: TGGTGGCTACGACGGGATT
B4: CCCUGGG (DNA:RNA)
RNA: B1 RNA with A25C, A26C, A28U, C29G, U31G
DNA 1: CAATCTGAATTCCGGTCTCCC
DNA 2: TGGTGGCTACGACGGGATT
B5: GAGCGGU (DNA:RNA)
RNA: B1 RNA with A25G, C27G, A28C, C29G
DNA 1: CAATCTGAATTCCGGTCTCCC
DNA 2: TGGTGGCTACGACGGGATT
B6: UUGGCAU (DNA:RNA)
RNA: B1 RNA with A25U, A26U, C27G, A28G, G30A
DNA 1: CAATCTGAATTCCGGTCTCCC
DNA 2: TGGTGGCTACGACGGGATT
B7: GUUCGAG (DNA:RNA)
RNA: B2 RNA with G26U, G28C, U29G, U30A, C31G
DNA 1: CAATCTGAATTCCGGTCTCCC
DNA 2: TGGTGGCTACGACGGGATT
B8: ACGAUAA (DNA:RNA)
RNA: B1 RNA with A26C, C27G, C29U, G30A, U31A
DNA 1: CAATCTGAATTCCGGTCTCCC
DNA 2: TGGTGGCTACGACGGGATT
B9: CGCGAUU (DNA:RNA)
RNA: B2 RNA with G25C, U27C, U29A, C31U
DNA 1: CAATCTGAATTCCGGTCTCCC
DNA 2: TGGTGGCTACGACGGGATT
B10: CGGUCGG (DNA:RNA)
RNA: B1 RNA with A25C, A26G, C27G, A28U, U31G
DNA 1: CAATCTGAATTCCGGTCTCCC
DNA 2: TGGTGGCTACGACGGGATT
B11: AAAAUUC (DNA:RNA)
RNA: B1 RNA with C27A, C29U, G30U, U31C
DNA 1: CAATCTGAATTCCGGTCTCCC
DNA 2: TGGTGGCTACGACGGGATT
B12: GCACCGU (DNA:RNA)
RNA: B1 RNA with A25G, A26C, C27A, A28C
DNA 1: CAATCTGAATTCCGGTCTCCC
DNA 2: TGGTGGCTACGACGGGATT
B13: GUGUGUA (DNA:RNA)
RNA: B2 RNA with G26U, U27G, G28U, U29G, C31A
DNA 1: CAATCTGAATTCCGGTCTCCC
DNA 2: TGGTGGCTACGACGGGATT
B14: UUGUGAU (DNA:RNA)
RNA: B1 RNA with A25U, A26U, C27G, A28U, C29G, G30A
DNA 1: CAATCTGAATTCCGGTCTCCC
DNA 2: TGGTGGCTACGACGGGATT
B15: CUGCGAU (DNA:RNA)
RNA: B1 RNA with A25C, A26U, C27G, A28C, C29G, G30A
DNA 1: CAATCTGAATTCCGGTCTCCC
DNA 2: TGGTGGCTACGACGGGATT
B16: GGGUACC (DNA:RNA)
RNA: B2 RNA with U27G, G28U, U29A, U30C
DNA 1: CAATCTGAATTCCGGTCTCCC
DNA 2: TGGTGGCTACGACGGGATT
B17: AUCAGAC (DNA:RNA)
RNA: B1 RNA with A26U, C29G, G30A, U31C
DNA 1: CAATCTGAATTCCGGTCTCCC
DNA 2: TGGTGGCTACGACGGGATT
B18: UACGCAG (DNA:RNA)
RNA: B1 RNA with A25U, A28G, G30A, U31G
DNA 1: CAATCTGAATTCCGGTCTCCC
DNA 2: TGGTGGCTACGACGGGATT
B19: UCUUGAG (DNA:RNA)
RNA: B2 RNA with G25U, G26C, G28U, U29G, U30A, C31G
DNA 1: CAATCTGAATTCCGGTCTCCC
DNA 2: TGGTGGCTACGACGGGATT
B20: GUACAAG (DNA:RNA)
RNA: B2 RNA with G26U, U27A, G28C, U29A, U30A, C31G
DNA 1: CAATCTGAATTCCGGTCTCCC
DNA 2: TGGTGGCTACGACGGGATT
B21: GCUUAUG (DNA:RNA)
RNA: B2 RNA with G26C, G28U, U29A, C31G
DNA 1: CAATCTGAATTCCGGTCTCCC
DNA 2: TGGTGGCTACGACGGGATT
B22: UUAUAGA (DNA:RNA)
RNA: B1 RNA with A25U, A26U, C27A, A28U, C29A, U31A
DNA 1: CAATCTGAATTCCGGTCTCCC
DNA 2: TGGTGGCTACGACGGGATT
B23: ACUCAAG (DNA:RNA)
RNA: B1 RNA with A26C, C27U, A28C, C29A, G30A, U31G
DNA 1: CAATCTGAATTCCGGTCTCCC
DNA 2: TGGTGGCTACGACGGGATT
B24: CGCGAUC (DNA:RNA)
RNA: B2 RNA with G25C, U27C, U29A
DNA 1: CAATCTGAATTCCGGTCTCCC
DNA 2: TGGTGGCTACGACGGGATT
B25: UAACAUA (DNA:RNA)
RNA: B1 RNA with A25U, C27A, A28C, C29A, G30U, U31A
DNA 1: CAATCTGAATTCCGGTCTCCC
DNA 2: TGGTGGCTACGACGGGATT
B26: AAGUUGU (DNA:RNA)
RNA: B1 RNA with C27G, A28U, C29U
DNA 1: CAATCTGAATTCCGGTCTCCC
DNA 2: TGGTGGCTACGACGGGATT
B27: ACUGAGU (DNA:RNA)
RNA: B1 RNA with A26C, C27U, A28G, C29A
DNA 1: CAATCTGAATTCCGGTCTCCC
DNA 2: TGGTGGCTACGACGGGATT
B28: AGGAAGA (DNA:RNA)
RNA: B1 RNA with A26G, C27G, C29A, U31A
DNA 1: CAATCTGAATTCCGGTCTCCC
DNA 2: TGGTGGCTACGACGGGATT
B29: CUAUACG (DNA:RNA)
RNA: GGGAGACCGGAAUUCAGAUUGUCCCUAUACGUUAAAUCCCGUCGUAGCCACCA
DNA 1: CAATCTGAATTCCGGTCTCCC
DNA 2: TGGTGGCTACGACGGGATT
B30: CGAAUUA (DNA:RNA)
RNA: B2 RNA with G25C, U27A, G28A, C31A
DNA 1: CAATCTGAATTCCGGTCTCCC
DNA 2: TGGTGGCTACGACGGGATT
B31: GACGCAC (DNA:RNA)
RNA: B1 RNA with A25G, A28G, G30A, U31C
DNA 1: CAATCTGAATTCCGGTCTCCC
DNA 2: TGGTGGCTACGACGGGATT

Target: T1, RBFOX1 RRM
Assay: EMSA; HiTS-Eq, 1 nM pool, 10 min; buffer printed only for the single-RNA assays: 10 mM Tris pH 7.5, 150 mM NaCl, 3.4 mM EDTA, 0.001% NP-40, 30 C
Settings: tags: His6 N-terminal (pET28a); label: 5' 32P
How it was run: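 Purified wild-type or mutant RbFox RRM at increasing concentrations was equilibrated with 1 nM of 5′-radiolabelled RNA carrying 7 randomized nucleotides for 10 min in 50 µL. Unbound RNA was separated by 8% native PAGE and sequenced. Relative association constants came from read-count changes of each RNA species compared with the control reaction, normalised to the cognate motif.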

Binder | binding signal
B1 | 0.00299 KA relative to UGCAUGU
B2 | 0.0173 KA relative to UGCAUGU
B3 | 0.00214 KA relative to UGCAUGU
B4 | 0.00714 KA relative to UGCAUGU
B5 | 0.0181 KA relative to UGCAUGU
B6 | 0.0206 KA relative to UGCAUGU
B7 | 0.0205 KA relative to UGCAUGU
B8 | 0.00231 KA relative to UGCAUGU
B9 | 0.0158 KA relative to UGCAUGU
B10 | 0.0152 KA relative to UGCAUGU
B11 | 0.00257 KA relative to UGCAUGU
B12 | 0.0125 KA relative to UGCAUGU
B13 | 0.0163 KA relative to UGCAUGU
B14 | 0.015 KA relative to UGCAUGU
B15 | 0.015 KA relative to UGCAUGU
B16 | 0.00807 KA relative to UGCAUGU

Binder | binding signal
B17 | 0.00347 KA relative to UGCAUGU
B18 | 0.0117 KA relative to UGCAUGU
B19 | 0.0207 KA relative to UGCAUGU
B20 | 0.0094 KA relative to UGCAUGU
B21 | 0.0101 KA relative to UGCAUGU
B22 | 0.00812 KA relative to UGCAUGU
B23 | 0.00459 KA relative to UGCAUGU
B24 | 0.0167 KA relative to UGCAUGU
B25 | 0.0014 KA relative to UGCAUGU
B26 | 0.0106 KA relative to UGCAUGU
B27 | 0.00991 KA relative to UGCAUGU
B28 | 0.0155 KA relative to UGCAUGU
B29 | 0.00882 KA relative to UGCAUGU
B30 | 0.00497 KA relative to UGCAUGU
B31 | 0.0147 KA relative to UGCAUGU
